Experimental data reported in PubChem BioAssay AID504832 (National Center for Advancing Translational Sciences (NCATS), 2011).
Out of some 310,000 compounds screened, about 18,000 (5.8%) were called active. This list was built around the results that the source calls inconclusive (neither active nor inactive); the mix of calls is not that of the screen. Calls come from the whole dose curve; as a rule, active = well fitted inhibition curve with a large enough effect; inconclusive = small, poorly fitted or top-dose-only effect, or another doubt; inactive = no such curve, though single readings can be large or run the other way. No potency is given beside an inconclusive call; the fits are too rough.

assay: Primary qHTS for delayed death inhibitors of the malarial parasite plastid, 48 hour incubation; conditions: P. falciparum luciferase growth in erythrocytes; series mostly up to 28.7 µM
In short: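 Erythrocytes infected with P. falciparum carrying an integrated firefly luciferase reporter (2% hematocrit, 0.1% parasitemia final) were exposed to compounds in RPMI 1640 with 0.5% Albumax at 37 C, 5% CO2. Growth inhibition was scored as reduced luminescence.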
Potency is the fitted concentration of half-maximal effect; tags give direction and shape of the fitted curve.

Row | SMILES | Potency
1 | Cc1ccc(-c2nn(C)c(=O)c3ccccc23)cc1S(=O)(=O)N1CCCC1 | inconclusive [inhibitor, partial curve, poor fit]
2 | COc1ccc(/C=N/OCC(=O)N2CC3(C)CC2CC(C)(C)C3)cc1 (centres undefined) | inconclusive [inhibitor, full curve, poor fit]
3 | COc1cc2[nH]c3c(N4CCN(c5ccccn5)CC4)ncnc3c2cc1OC | active: 9.28 µM
4 | O=C(Nc1ccc2ncccc2c1)Nc1ccc2ncccc2c1 | inconclusive [inhibitor, single point]
5 | O=C(COc1ccccc1)Nc1ccc(S(=O)(=O)NCc2ccco2)cc1 | inactive
6 | Cc1cccc(C)c1NC(=O)CNC(=O)C1CCCN(C(=O)c2ccc(Cl)cc2)C1 (centres undefined) | inactive
7 | CC(=O)Nc1nc(-c2ccc3c(c2)CCO3)cs1 | inactive
8 | CCOC(=O)N1CCN(CC(=O)Nc2c(C(=O)OC)[nH]c3ccc(Cl)cc23)CC1 | inconclusive [inhibitor, single point]
9 | CCOC(=O)C1(Cc2cccc(OC)c2)CCCN(C(=O)c2ccc(OC)o2)C1 (centres undefined) | inconclusive [inhibitor, single point]
10 | Cc1noc(C)c1COC(=O)c1cc2c3ccccc3n(C)c2s1 | inconclusive [inhibitor, partial curve]
11 | Cc1ccc(C(=O)NC(=S)NCc2cccnc2)cc1C | inconclusive [inhibitor, full curve, poor fit]
12 | CC(Cn1cncn1)C(=O)N1CCN(S(=O)(=O)c2ccc(Cl)cc2)CC1 (centres undefined) | inactive
13 | O=C(O)c1c(Cl)cccc1Cl | inactive
14 | FC(F)(F)c1cccnc1Oc1ccc(C2=NCCS2)cc1 | inconclusive [inhibitor, full curve, poor fit]
15 | CCCCCCc1c(C)nc(-n2[nH]c(C)c(CCO)c2=O)[nH]c1=O | inconclusive [inhibitor, partial curve, poor fit]
16 | CC(C)n1c(SCC(=O)Nc2ccccc2)nc2c1c(=O)[nH]c(=O)n2C | inconclusive [inhibitor, full curve, poor fit]
17 | COc1ccc(CN2CC(C(=O)NCc3cccc(OC)c3)CC2=O)cc1 (centres undefined) | inactive
18 | CCc1cccc(CC)c1NC(=S)NCc1nc2ccccc2[nH]1 | inactive
19 | CCc1ccc(S(=O)(=O)Nc2cc(SCC(=O)O)c(O)c3ccccc23)cc1 | active: 7.38 µM
20 | CSc1ncc(CN2CCCC(C(=O)c3ccc(C(C)(C)C)cc3)C2)cn1 (centres undefined) | inconclusive [inhibitor, partial curve]
21 | CCOC(=O)C(C(=O)NCc1ccc(C)cc1)c1ncc(C(F)(F)F)cc1Cl (centres undefined) | inactive
22 | CC(=O)Nc1ccc(NC(=O)CSc2nccn2Cc2ccccc2)cc1 | inactive

Row | SMILES | Potency
23 | CCN(CC)CCOC(=O)c1ccc(N/C=C(/C#N)c2nc(-c3ccc(OC)cc3)cs2)cc1 | inconclusive [inhibitor, full curve]
24 | CCN(C(=O)COC(=O)c1c2c(nc3ccccc13)/C(=C/c1ccccc1)CC(C)C2)C1CCS(=O)(=O)C1 (centres undefined) | inconclusive [inhibitor, single point]
25 | O=C1[C@H]2[C@@H](c3ccc(F)cc3)N3C(=O)N(c4cccc(F)c4)C(=O)[C@@]3(Cc3ccc(Cl)cc3)[C@H]2C(=O)N1C1CCCCC1 | active: 14.7 µM
26 | CCOc1cc(/C=N/NC(=O)C2CCCC2)ccc1O | inactive
27 | Cc1ccc(NC(=S)N(CCN2CCCCC2)Cc2ccco2)cc1C | inconclusive [inhibitor, partial curve]
28 | COC(=O)c1ccc(COc2ccc3c(C)c(C)c(=O)oc3c2C)o1 | inconclusive [inhibitor, partial curve, poor fit]
29 | COc1ccc(NC(=O)CSc2nnc(-c3ccco3)c(-c3ccco3)n2)cc1OC | inactive
30 | Cc1cccc(/C=N/N(CCO)C2=NS(=O)(=O)c3ccccc32)c1 | inconclusive [inhibitor, partial curve, poor fit]
31 | O=C(/C=C/NNC(=O)c1cccc(Br)c1)c1cccc(Br)c1 | active: 9.28 µM
32 | CCC(=O)Nc1ccc(-c2cc(-c3ccccc3)nc(-c3ccc(NC(=O)CC)cc3)n2)cc1 | inconclusive [inhibitor, full curve, poor fit]
33 | Cc1ccc(NC(=O)CN(C)C(=O)c2cccc(S(=O)(=O)NCc3cccs3)c2)cc1 | inconclusive [inhibitor, partial curve]
34 | COc1cc(CNCCN(C)C)ccc1OCc1c(F)cccc1Cl | inconclusive [inhibitor, partial curve]
35 | Cc1nc2nc(C)c(NS(=O)(=O)c3ccc(CC(C)C)cc3)c(=O)n2[nH]1 | inactive
36 | O=C(Nc1ccccc1N1CCCC1)c1cccc(-c2cc3ccccc3oc2=O)c1 | inconclusive [inhibitor, single point]
37 | Nc1c(Br)cc(Br)cc1CNC1CCC(O)CC1 (centres undefined) | inconclusive [inhibitor, single point]
38 | Cc1occc1C(=O)N(Cc1nc(-c2ccccc2)no1)C(C)C | inactive
39 | COc1ccc2sc(N(CCCN(C)C)C(=O)c3ccc(S(=O)(=O)N(C)Cc4ccccc4)cc3)nc2c1 | inconclusive [inhibitor, single point]
40 | Cc1cc(NC(=O)CCCS(=O)(=O)c2nc(-c3cccs3)cc(C(F)(F)F)n2)no1 | inconclusive [inhibitor, full curve, poor fit]
41 | O=C(CN1CCN(C(c2ccccc2)c2ccccc2)CC1)N1CCOCC1 | inconclusive [inhibitor, single point]
42 | NC(N)=NCC1COc2ccccc2O1 (centres undefined) | inconclusive [inhibitor, full curve]
43 | COc1ccc(C(Sc2ccccc2)c2ccccc2)cc1OC (centres undefined) | inconclusive [inhibitor, single point]
44 | Nc1ccccc1N=Cc1ccc(-c2cccc(Cl)c2)o1 | active: 10.4 µM
